Source: article PMC12820563, “FoxP3 forms a head-to-head dimer in vivo and stabilizes its multimerization on adjacent microsatellites”
The list shows a part of the results.

Target: T1, MBP-FoxP1dN (Mus musculus, UniProt P58462 326-579)
T1 sequence: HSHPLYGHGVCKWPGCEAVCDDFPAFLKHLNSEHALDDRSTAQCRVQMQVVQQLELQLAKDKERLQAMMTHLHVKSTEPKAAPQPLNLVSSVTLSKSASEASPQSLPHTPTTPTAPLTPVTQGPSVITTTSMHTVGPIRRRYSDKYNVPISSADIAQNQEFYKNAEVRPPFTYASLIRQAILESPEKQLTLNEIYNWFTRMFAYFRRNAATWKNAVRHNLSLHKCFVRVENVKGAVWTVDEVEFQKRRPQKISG
Assay: PD-seq (MBP pull-down with sequencing); 20 mM Tris-HCl pH 7.5, 100 mM NaCl, 1.5 mM MgCl2, 0.4 uM protein, 0.1 uM dsDNA library, 30 min, room temperature, amylose pull-down; high values mean tight binding
Details: protein: recombinant; tags: His6-MBP; chain copies: 2; dsDNA, one strand shown
Procedure, shortened: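 In Tris pH 7.5 buffer with NaCl and MgCl2, 0.4 µM His6-MBP-tagged mouse FoxP3 or FoxP1 fragment lacking the N-terminus, from E. coli, met 0.1 µM Klenow-filled double-stranded degenerate DNA library for 30 min at room temperature. Three washes on amylose resin followed capture of the complexes, then proteinase K release of DNA, PCR barcoding and Illumina sequencing. Binding is taken as pooled-replicate reads-per-million enrichment of pull-down relative to input.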

How did the binding signal turn out when “GATGATTGTTCTCCCAGCTGATGAATTTGGGTTGTCGAGTAAACAAATTTTCCTAATCTTTCTGTTCAAGCGCCATCTAC” was run?
The binding signal was 0.959 RPM ratio (pull-down/input).

With “GATGATTGTTCTCCCAGCTGATGAATTGATTAACTCGAGTAAACAAATTTTCCTAATCTTTCTGTTCAAGCGCCATCTAC” as the sequence, how does the binding signal read?
Its binding signal is 1.04 RPM ratio (pull-down/input).

How did the binding signal turn out when “GATGATTGTTCTCCCAGCTGATGAATTCAATTATTCGAGTAAACAAATTTTCCTAATCTTTCTGTTCAAGCGCCATCTAC” was run?
Its binding signal is 1.12 RPM ratio (pull-down/input).

How did the binding signal turn out when “GATGATTGTTCTCCCAGCTGATGAATTGCCAGATTCGAGTAAACAAATTTTCCTAATCTTTCTGTTCAAGCGCCATCTAC” was run?
Its binding signal is 0.901 RPM ratio (pull-down/input).

For “GATGATTGTTCTCCCAGCTGATGAATTTCCCTATTCGAGTAAACAAATTTTCCTAATCTTTCTGTTCAAGCGCCATCTAC”, which binding signal is on record?
The binding signal was 0.889 RPM ratio (pull-down/input).

“GATGATTGTTCTCCCAGCTGATGAATTTATGCGTTCGAGTAAACAAATTTTCCTAATCTTTCTGTTCAAGCGCCATCTAC” was tested. Which binding signal did it give?
The binding signal was 1.3 RPM ratio (pull-down/input).

For “GATGATTGTTCTCCCAGCTGATGAATTGCAAGGCTCGAGTAAACAAATTTTCCTAATCTTTCTGTTCAAGCGCCATCTAC”, which binding signal is on record?
The binding signal was 1.02 RPM ratio (pull-down/input).

Which binding signal does the source give for “GATGATTGTTCTCCCAGCTGATGAATTCGCCTTGTCGAGTAAACAAATTTTCCTAATCTTTCTGTTCAAGCGCCATCTAC” here?
The binding signal was 0.89 RPM ratio (pull-down/input).

Which binding signal does the source give for “GATGATTGTTCTCCCAGCTGATGAATTCAGATGGTCGAGTAAACAAATTTTCCTAATCTTTCTGTTCAAGCGCCATCTAC” here?
The binding signal was 0.816 RPM ratio (pull-down/input).

With “GATGATTGTTCTCCCAGCTGATGAATTTTTCTTCTCGAGTAAACAAATTTTCCTAATCTTTCTGTTCAAGCGCCATCTAC” as the sequence, how does the binding signal read?
Its binding signal is 0.898 RPM ratio (pull-down/input).

With “GATGATTGTTCTCCCAGCTGATGAATTCCTATGTTCGAGTAAACAAATTTTCCTAATCTTTCTGTTCAAGCGCCATCTAC” as the sequence, how does the binding signal read?
Its binding signal is 1.06 RPM ratio (pull-down/input).

Which binding signal does the source give for “GATGATTGTTCTCCCAGCTGATGAATTAGGAATCTCGAGTAAACAAATTTTCCTAATCTTTCTGTTCAAGCGCCATCTAC” here?
Its binding signal is 0.857 RPM ratio (pull-down/input).

How did the binding signal turn out when “GATGATTGTTCTCCCAGCTGATGAATTTGGAGTATCGAGTAAACAAATTTTCCTAATCTTTCTGTTCAAGCGCCATCTAC” was run?
The binding signal was 0.963 RPM ratio (pull-down/input).

“GATGATTGTTCTCCCAGCTGATGAATTTTATGTGTCGAGTAAACAAATTTTCCTAATCTTTCTGTTCAAGCGCCATCTAC” was tested. Which binding signal did it give?
Its binding signal is 1.13 RPM ratio (pull-down/input).

Which binding signal does the source give for “GATGATTGTTCTCCCAGCTGATGAATTATGTTCCTCGAGTAAACAAATTTTCCTAATCTTTCTGTTCAAGCGCCATCTAC” here?
The binding signal was 1.04 RPM ratio (pull-down/input).

For “GATGATTGTTCTCCCAGCTGATGAATTGAATTTGTCGAGTAAACAAATTTTCCTAATCTTTCTGTTCAAGCGCCATCTAC”, which binding signal is on record?
The binding signal was 0.98 RPM ratio (pull-down/input).

Which binding signal does the source give for “GATGATTGTTCTCCCAGCTGATGAATTGGATGCATCGAGTAAACAAATTTTCCTAATCTTTCTGTTCAAGCGCCATCTAC” here?
The binding signal was 1.45 RPM ratio (pull-down/input).

How did the binding signal turn out when “GATGATTGTTCTCCCAGCTGATGAATTGGGGTGCTCGAGTAAACAAATTTTCCTAATCTTTCTGTTCAAGCGCCATCTAC” was run?
Its binding signal is 0.852 RPM ratio (pull-down/input).

How did the binding signal turn out when “GATGATTGTTCTCCCAGCTGATGAATTTCAAGGCTCGAGTAAACAAATTTTCCTAATCTTTCTGTTCAAGCGCCATCTAC” was run?
Its binding signal is 0.74 RPM ratio (pull-down/input).

Which binding signal does the source give for “GATGATTGTTCTCCCAGCTGATGAATTGTGAAAGTCGAGTAAACAAATTTTCCTAATCTTTCTGTTCAAGCGCCATCTAC” here?
Its binding signal is 1.01 RPM ratio (pull-down/input).

“GATGATTGTTCTCCCAGCTGATGAATTCGGTGTTTCGAGTAAACAAATTTTCCTAATCTTTCTGTTCAAGCGCCATCTAC” was tested. Which binding signal did it give?
Its binding signal is 1.04 RPM ratio (pull-down/input).

For “GATGATTGTTCTCCCAGCTGATGAATTAACGAGCTCGAGTAAACAAATTTTCCTAATCTTTCTGTTCAAGCGCCATCTAC”, which binding signal is on record?
Its binding signal is 0.81 RPM ratio (pull-down/input).

For “GATGATTGTTCTCCCAGCTGATGAATTTGCTTGATCGAGTAAACAAATTTTCCTAATCTTTCTGTTCAAGCGCCATCTAC”, which binding signal is on record?
The binding signal was 1.12 RPM ratio (pull-down/input).

Which binding signal does the source give for “GATGATTGTTCTCCCAGCTGATGAATTCGAGAGTTCGAGTAAACAAATTTTCCTAATCTTTCTGTTCAAGCGCCATCTAC” here?
The binding signal was 0.759 RPM ratio (pull-down/input).

“GATGATTGTTCTCCCAGCTGATGAATTGGCGTATTCGAGTAAACAAATTTTCCTAATCTTTCTGTTCAAGCGCCATCTAC” was tested. Which binding signal did it give?
Its binding signal is 1.03 RPM ratio (pull-down/input).

With “GATGATTGTTCTCCCAGCTGATGAATTTACTTAGTCGAGTAAACAAATTTTCCTAATCTTTCTGTTCAAGCGCCATCTAC” as the sequence, how does the binding signal read?
Its binding signal is 1.44 RPM ratio (pull-down/input).

With “GATGATTGTTCTCCCAGCTGATGAATTGTCCAAGTCGAGTAAACAAATTTTCCTAATCTTTCTGTTCAAGCGCCATCTAC” as the sequence, how does the binding signal read?
The binding signal was 0.936 RPM ratio (pull-down/input).

For “GATGATTGTTCTCCCAGCTGATGAATTTCTGCCATCGAGTAAACAAATTTTCCTAATCTTTCTGTTCAAGCGCCATCTAC”, which binding signal is on record?
Its binding signal is 0.889 RPM ratio (pull-down/input).

With “GATGATTGTTCTCCCAGCTGATGAATTCTTACGTTCGAGTAAACAAATTTTCCTAATCTTTCTGTTCAAGCGCCATCTAC” as the sequence, how does the binding signal read?
Its binding signal is 0.856 RPM ratio (pull-down/input).

With “GATGATTGTTCTCCCAGCTGATGAATTAGTAAGCTCGAGTAAACAAATTTTCCTAATCTTTCTGTTCAAGCGCCATCTAC” as the sequence, how does the binding signal read?
The binding signal was 1.06 RPM ratio (pull-down/input).

“GATGATTGTTCTCCCAGCTGATGAATTAACGAATTCGAGTAAACAAATTTTCCTAATCTTTCTGTTCAAGCGCCATCTAC” was tested. Which binding signal did it give?
Its binding signal is 1.03 RPM ratio (pull-down/input).
